Assay results published in the antibiotic and cytotoxicity screens of Wong et al. (2023).
The list shows a part of the results.

test system: S. aureus RN4220; assay: growth inhibition call (relative growth <= 0.2); conditions: 50 µM

Growth inhibition call, inactive:
Cc1noc(C)c1NC(=O)Nc1ccc2c(c1)C(=O)N([C@H](C)CO)C[C@H](C)[C@@H](CN(C)Cc1ccncc1)OCCCC[C@H](C)O2
CN(C)Cc1cn(CC[C@H]2CC[C@H](NC(=O)Cc3cccnc3)[C@@H](CO)O2)nn1
COc1ccc(C#Cc2cnc3c(c2)C(=O)N([C@H](C)CO)C[C@H](C)[C@H](CN(C)Cc2ccncc2)O3)cc1OC
C[C@H](CO)N1C[C@H](C)[C@H](CN(C)Cc2ccc(Cl)c(Cl)c2)OCc2ccccc2-c2c(n(C)c3ccccc23)C1=O
C[C@H]1CN([C@@H](C)CO)C(=O)c2cc(NC(=O)CCC(F)(F)F)ccc2O[C@@H]1CN(C)C(=O)Nc1cccc2ccccc12
C[C@@H]1CCCCO[C@H](CN(C)S(=O)(=O)c2cccs2)[C@@H](C)CN([C@H](C)CO)C(=O)c2cc(NC(=O)NC3CCCCC3)ccc2O1
Cc1ncc[nH]1
C[C@@H]1CN([C@H](C)CO)C(=O)Cc2cc(NS(=O)(=O)c3cn(C)cn3)ccc2O[C@H]1CN(C)C(=O)NC1CCCCC1
C[C@@H]1CN([C@H](C)CO)C(=O)c2cc(NC(=O)Cc3ccccc3)ccc2O[C@H]1CN(C)S(=O)(=O)c1ccccc1
Cc1noc(C)c1S(=O)(=O)Nc1ccc2c(c1)CC(=O)N([C@@H](C)CO)C[C@@H](C)[C@H](CN(C)S(=O)(=O)c1cn(C)cn1)O2
COc1ccc(NC(=O)Nc2ccc3c(c2)C(=O)N([C@H](C)CO)C[C@H](C)[C@H](CN(C)Cc2ccc(C(=O)O)cc2)OCCCC[C@H](C)O3)cc1
C[C@@H]1CN([C@@H](C)CO)C(=O)c2cc(NC(=O)CCC(F)(F)F)ccc2O[C@@H](C)CCCCO[C@H]1CN(C)S(=O)(=O)c1ccc(F)cc1
C[C@@H]1CN([C@@H](C)CO)S(=O)(=O)c2ccc(C#Cc3ccccc3F)cc2O[C@H]1CN(C)C(=O)c1ccc2c(c1)OCO2
C[C@H](CO)N1C[C@H](C)[C@@H](CN(C)C(=O)Nc2ccc(C(F)(F)F)cc2)Oc2c(NC(=O)Nc3ccc(C(F)(F)F)cc3)cccc2C1=O
C[C@@H]1CN([C@H](C)CO)C(=O)c2cccc(NC(=O)c3ccncc3)c2O[C@@H]1CN(C)S(=O)(=O)c1cn(C)cn1
COc1ccc(S(=O)(=O)N(C)C[C@H]2OCCCC[C@@H](C)Oc3ccc(NC(=O)Nc4cccc5ccccc45)cc3C(=O)N([C@@H](C)CO)C[C@H]2C)cc1
C[C@H]1CCCCO[C@@H](CN(C)C(=O)Nc2ccccc2)[C@@H](C)CN([C@@H](C)CO)C(=O)c2cc(NC(=O)c3ccncc3)ccc2O1
O=C(CCC1CCCC1)N1CCCC1
COc1ccc(NC(=O)N(C)C[C@@H]2Oc3c(NC(=O)c4cc(C)nn4C)cccc3C(=O)N([C@@H](C)CO)C[C@@H]2C)cc1
O=C(C[C@@H]1CC[C@H](NC(=O)c2ccc(F)cc2)[C@H](CO)O1)NCc1ccncn1
C[C@H]1CN([C@@H](C)CO)S(=O)(=O)c2ccc(C#Cc3ccncc3)cc2O[C@@H]1CN(C)C(=O)C1CCC1
C[C@@H]1CN([C@@H](C)CO)C(=O)CCCn2cc(nn2)CO[C@H]1CN(C)C(=O)C1CC1
C[C@@H]1CN([C@@H](C)CO)C(=O)Cc2cc(NC(=O)Cn3cnnn3)ccc2O[C@@H]1CN(C)Cc1ccc(C(F)(F)F)cc1
C[C@H](CO)N1C[C@H](C)[C@@H](CN(C)C(=O)Cc2ccccn2)Oc2ncc(-c3ccc(F)cc3)cc2C1=O
OC[C@@H](O)[C@@H](O)[C@@H](O)/C=N/Nc1ccccc1
C[C@H]1CN([C@@H](C)CO)C(=O)c2cc(NS(=O)(=O)c3ccc(Cl)cc3)ccc2O[C@@H]1CN(C)S(=O)(=O)c1cn(C)cn1
CN(C)CC(=O)N[C@H]1CC[C@@H](CC(=O)NCCN2CCCCC2)O[C@H]1CO
COc1ccc(NC(=O)N(C)C[C@H]2Oc3ncc(Br)cc3C(=O)N([C@H](C)CO)C[C@@H]2C)cc1
CC(C)NC(=O)N(C)C[C@@H]1Oc2ccc(NC(=O)c3ccncc3)cc2CC(=O)N([C@H](C)CO)C[C@H]1C
C[C@@H]1CN([C@H](C)CO)C(=O)c2cccc(NS(=O)(=O)c3ccc(F)cc3)c2O[C@@H]1CN(C)S(=O)(=O)c1cccs1
